According to PubChem BioAssay AID588591 (National Center for Advancing Translational Sciences (NCATS), 2011):
Hit rate of the full screen: of about 390,000 compounds, about 4,700 (1.2%) were called active. Inconclusive results, whose numbers are uncertain, are shown with a selection of clear calls. Calls follow the shape of the dose curve; as a rule, active = well fitted inhibition curve with a large enough effect; inconclusive = small, poorly fitted or top-dose-only effect, or another doubt; inactive = no such curve, though single readings can be large or run the other way. Potencies of inconclusive entries are doubtful fits and often do not repeat.

Biological target: DNA polymerase eta (Homo sapiens) (UniProt Q9Y253)
Test: qHTS for Inhibitors of Polymerase Eta
Details: recombinant Pol eta, fluorescent DNA replication assay; series mostly up to 114 µM; activity change, negative = inhibition: at the top concentration
How it was run: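 Fluorescent replication assay: 50 nM final substrate added after a 15 min room-temperature compound preincubation with 10 nM enzyme. Signal taken at 0 min and again at 10 min.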
% is scaled to controls: 0 for no effect and ±100 for the full control effect; potency is read from the fitted curve at half-maximal effect; tags tell the direction and shape of the fitted curve.

Sequence of UniProt Q9Y253 (Q9Y253 whole entry, looked up): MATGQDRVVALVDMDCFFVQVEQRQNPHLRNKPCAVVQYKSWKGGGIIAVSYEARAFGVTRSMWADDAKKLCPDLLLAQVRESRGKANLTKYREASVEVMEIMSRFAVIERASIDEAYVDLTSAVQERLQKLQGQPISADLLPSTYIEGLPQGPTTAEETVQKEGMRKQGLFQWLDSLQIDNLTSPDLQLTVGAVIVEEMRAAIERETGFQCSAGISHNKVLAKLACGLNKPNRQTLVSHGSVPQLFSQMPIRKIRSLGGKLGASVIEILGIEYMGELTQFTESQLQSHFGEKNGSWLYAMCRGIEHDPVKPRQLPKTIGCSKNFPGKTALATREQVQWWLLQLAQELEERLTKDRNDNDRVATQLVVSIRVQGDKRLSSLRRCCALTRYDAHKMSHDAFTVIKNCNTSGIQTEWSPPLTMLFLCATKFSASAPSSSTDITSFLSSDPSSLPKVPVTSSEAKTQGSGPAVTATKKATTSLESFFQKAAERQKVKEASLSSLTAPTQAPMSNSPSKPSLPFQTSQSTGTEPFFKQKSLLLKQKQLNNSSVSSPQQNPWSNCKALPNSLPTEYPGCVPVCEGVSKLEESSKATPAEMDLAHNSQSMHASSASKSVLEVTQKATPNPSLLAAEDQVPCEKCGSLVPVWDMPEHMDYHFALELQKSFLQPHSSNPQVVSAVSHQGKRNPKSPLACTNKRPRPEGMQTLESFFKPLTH

How did the Potency turn out when `COC1=C/C(=C/c2c(N)n3nc(-c4ccc(C)cc4)sc3nc2=O)C=CC1=O` was run?
The Potency was active: 22.4 µM.

`O=[N+]([O-])c1ccc(Oc2cccc(Br)c2)c2ccncc12` was tested. Which Potency did it give?
The Potency was inconclusive: 20 µM [inhibitor, partial curve, poor fit].

How did the Potency turn out when `O=C(O)COc1ccc(Oc2ccccc2)cc1` was run?
The Potency was inconclusive: 39.8 µM [inhibitor, single point].

With `COc1ccccc1OCC(=O)N/N=C/C=C/c1ccc([N+](=O)[O-])o1` as the molecule, how does the Potency read?
The Potency was inconclusive: 39.8 µM [inhibitor, partial curve, poor fit].

For `CCc1ccc(/C=C2/SC(=S)N(CCCC(=O)Nc3cccc(C(=O)O)c3)C2=O)cc1`, which Potency is on record?
Its Potency is inconclusive: 79.4 µM [inhibitor, single point].

For `Cc1cccc(/C=C2\Sc3ccc(C(=O)N4CCCCC4)cc3N(C)C2=O)c1`, which Potency is on record?
Its Potency is inconclusive: 79.4 µM [inhibitor, partial curve, poor fit].

Which “activity change, negative = inhibition” value does the source give for `CCOc1ccc(/C=C/C(=O)c2c(O)cc(C)oc2=O)cc1` here?
Its value is inactive: -12.8%.

For `COc1cc(NC(=O)c2noc3c2CC(C(C)(C)C)CC3)cc(OC)c1OC` (centres undefined), which Potency is on record?
The Potency was inconclusive: 50.1 µM [inhibitor, partial curve, poor fit].

How did the “activity change, negative = inhibition” value turn out when `O=[N+]([O-])c1ccccc1SNc1ccccc1` was run?
The value was inactive: -9.8%.

Which Potency does the source give for `CN(C)c1nc(NC(C)(C)C)nc(SCC(=O)Nc2ccccc2)n1` here?
Its Potency is inconclusive: 89.1 µM [inhibitor, partial curve, poor fit].

How did the “activity change, negative = inhibition” value turn out when `COC(=O)c1sc2cccc(F)c2c1S(=O)(=O)NCc1ccccc1Cl` was run?
Its value is inactive: -21.1%.

How did the Potency turn out when `CCN(c1ccccc1)S(=O)(=O)c1cc(C(=O)NCC(c2ccco2)N2CCCCC2)ccc1C` (centres undefined) was run?
Its Potency is inconclusive: 39.8 µM [inhibitor, partial curve, poor fit].

Which “activity change, negative = inhibition” value does the source give for `CCOCCOc1cc(NCc2ccccc2)c2ncn(C(C)C)c2c1` here?
Its value is inactive: -22.9%.

For `CCOC(=O)c1cccc(Nc2nc(-c3cccnc3)nc3ccccc23)c1`, which Potency is on record?
Its Potency is inconclusive: 12.6 µM [inhibitor, partial curve, poor fit].

With `COc1ccc(-c2ccc(/C=C3/C(=N)N4C(C)=CSC4=NC3=O)o2)c([N+](=O)[O-])c1` as the molecule, how does the Potency read?
The Potency was inconclusive: 3.98 µM [inhibitor, full curve, poor fit].

Which “activity change, negative = inhibition” value does the source give for `Fc1ccc(NCc2ccccc2-c2nnc(-c3ccccc3Cl)o2)cc1Cl` here?
The value was inactive: -24.5%.

How did the “activity change, negative = inhibition” value turn out when `COc1ccc2cc3cc(C(=O)NCCN4CCc5ccccc5C4)oc3nc2c1` was run?
Its value is inactive: -7.93%.

How did the “activity change, negative = inhibition” value turn out when `Cc1cccc(-c2ncc(CN3CCN(CC(C)C)C(CCO)C3)cn2)c1` (centres undefined) was run?
The value was inactive: -24.4%.

How did the Potency turn out when `Cc1nc(Nc2ccc(Cl)cc2)c(C#N)c(=O)[nH]1` was run?
The Potency was inconclusive: 89.1 µM [inhibitor, partial curve, poor fit].
